# Laboratory results published in publication PMC7819943, “Rice protein-binding microarrays: a tool to detect cis-acting elements near promoter regions in rice”.
# Some of the results follow.
# Molecular target: T1, OsWOX13 (Oryza sativa, UniProt Q5QMM3 1-267)
# T1 sequence: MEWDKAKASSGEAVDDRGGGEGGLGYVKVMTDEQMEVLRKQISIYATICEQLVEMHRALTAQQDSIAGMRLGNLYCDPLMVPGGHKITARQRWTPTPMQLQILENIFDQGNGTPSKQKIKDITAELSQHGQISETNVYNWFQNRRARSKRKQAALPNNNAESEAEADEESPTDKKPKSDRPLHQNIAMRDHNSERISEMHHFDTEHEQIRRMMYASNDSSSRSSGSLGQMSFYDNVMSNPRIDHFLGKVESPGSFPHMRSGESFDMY
# Assay: protein-binding microarray (RPBM); PBS, 2% BSA, 51.3 ng/ul salmon testes DNA, 50 uM zinc acetate, 200 nM TF, 25 C, 1 h; high values mean tight binding
# Settings: protein: recombinant; tags: N-terminal polyhistidine and DsRed monomer fusion (pET32a); label: CyDye5-dUTP incorporated in the synthesized complementary strand; 3' TTTTT single-stranded linker to array surface; dsDNA, one strand shown
# Method in brief: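 An Axon 4000B scanner gave the binding signal as per-feature fluorescence intensity in arbitrary units. This followed washing of a custom Agilent array that had been incubated for 1 h at 25 °C with 200 nM protein in PBS, 2% BSA, salmon testes DNA and 50 µM zinc acetate. The proteins were transcription factors fused at the N-terminus to polyhistidine and DsRed, expressed in E. coli BL21-CodonPlus and purified on Ni–NTA.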
row,Sequence,binding signal
1,TACTAAAATTACATATGTAATTTAGAGACTTACATATATACGGAGTCACCTAGTGCAG,10200 fluorescence intensity (a.u.)
2,AAAATCCAATCAAGCCACCCAATTCCATGCTTTTCACTTTCGGAGTCACCTAGTGCAG,8420 fluorescence intensity (a.u.)
3,AATTTTAAGTTGTATGATTATAATTATTTAAGTGACATAACGGAGTCACCTAGTGCAG,5960 fluorescence intensity (a.u.)
4,GAGAGATGATGGGCTGGTTTGGTTTGAGGCCTAAATTAGGCGGAGTCACCTAGTGCAG,3660 fluorescence intensity (a.u.)
5,CAAAATTTGAATTGTTCAAATAGAGCCAGACGGAGAAATGCGGAGTCACCTAGTGCAG,5310 fluorescence intensity (a.u.)
6,AAATTTTGAAATTGTTAATATGATATAAATGAGATATAGCCGGAGTCACCTAGTGCAG,3970 fluorescence intensity (a.u.)
7,ATAAATTTTGATTTCATGCAAGGGAAACACCGGTGAGGCCCGGAGTCACCTAGTGCAG,10500 fluorescence intensity (a.u.)
8,TGGAGAATTTAATAAAATTAAATTTAACAATGTCATTTTACGGAGTCACCTAGTGCAG,3230 fluorescence intensity (a.u.)
9,CCTTAATGGATGAAATCCTTCATGCTGTATGTTCCCACTTCGGAGTCACCTAGTGCAG,23500 fluorescence intensity (a.u.)
10,AAGACTAATTAATCCGTTATTACCACATTATCAAATCATGCGGAGTCACCTAGTGCAG,30100 fluorescence intensity (a.u.)
11,AGTTGACTGTCAATCTTTCATGAGGACATATTCTAGTTTACGGAGTCACCTAGTGCAG,38600 fluorescence intensity (a.u.)
12,AAGATAAATGTAACTGTCTTATTGCGCCCGCGCGGATGCCCGGAGTCACCTAGTGCAG,3330 fluorescence intensity (a.u.)
13,GCTCTTGCCATATCAATTGATATGATGCATACATCACAAACGGAGTCACCTAGTGCAG,3390 fluorescence intensity (a.u.)
14,AAAGATGACAACAAACATACAAATTTATTTGTTGTTTTATCGGAGTCACCTAGTGCAG,3530 fluorescence intensity (a.u.)
15,AGAACCAATCAGGCGGGAGACAACTGGACAACCGTCAGCCCGGAGTCACCTAGTGCAG,15200 fluorescence intensity (a.u.)
16,CTCATCAATGTATTGATTGCATCCTGCAAATAGTTCAGGGCGGAGTCACCTAGTGCAG,23800 fluorescence intensity (a.u.)
17,TCAGTATGTGATTGATTGAAAACTGAAATGGTAGACATACCGGAGTCACCTAGTGCAG,53400 fluorescence intensity (a.u.)
18,CCAAGCAAATAATCCGATAGATTGAATCGGTGAGTTACCACGGAGTCACCTAGTGCAG,9630 fluorescence intensity (a.u.)
19,CAGAATTATATAAATTCTGGCTCCACCACTGACTGCGACACGGAGTCACCTAGTGCAG,4010 fluorescence intensity (a.u.)
20,TAACTGAAATGTAATTATATTGTAACTGCACTATGACTGCCGGAGTCACCTAGTGCAG,18100 fluorescence intensity (a.u.)
21,CAGTGAAAATTGATACGCTATGAAACCCAACAAGATTGAACGGAGTCACCTAGTGCAG,8120 fluorescence intensity (a.u.)

row,Sequence,binding signal
1,GTCATTACAATTATTAGTCTATTTGTAGCCGTGCAATTGGCGGAGTCACCTAGTGCAG,6320 fluorescence intensity (a.u.)
2,TTTCTTTAATTATATTCTTCTGTTAAGACAAGCAAGGGAACGGAGTCACCTAGTGCAG,8320 fluorescence intensity (a.u.)
3,TCCATACATTATTGACGTAATCATAAATATACATCCATGTCGGAGTCACCTAGTGCAG,16600 fluorescence intensity (a.u.)
4,AAAATATATTTAATTATTAATTTGGTGATACTAATTTAGTCGGAGTCACCTAGTGCAG,14200 fluorescence intensity (a.u.)
5,AACGAGATTGGGGATAAGATAGAAAGAAAATTAAATAAGGCGGAGTCACCTAGTGCAG,14700 fluorescence intensity (a.u.)
6,CAATTAGTACAATTAAGTCAATAGTGATTCAGGCAACAGCCGGAGTCACCTAGTGCAG,4490 fluorescence intensity (a.u.)
7,GATAATTGCACCAAATTTACTTTCTTCAAGCTATAAGTGCCGGAGTCACCTAGTGCAG,42100 fluorescence intensity (a.u.)
8,CTAATTAAATAATCTTGGATGATAGAAAGACAAGTGATTTCGGAGTCACCTAGTGCAG,5130 fluorescence intensity (a.u.)
9,CTACCTAATTAGGTCAATAAAATTGTATAACAGAGTCGAGCGGAGTCACCTAGTGCAG,39000 fluorescence intensity (a.u.)
10,ATTAATTGTCGATCATGCTATTGTCGTGGATTAGTCAAGCCGGAGTCACCTAGTGCAG,37400 fluorescence intensity (a.u.)
11,TCCTAATTTCCTCAACCTACAGGGTCACATGCAACAGACACGGAGTCACCTAGTGCAG,3440 fluorescence intensity (a.u.)
12,CTCTAACATTATCAAAATTGGGTACGGTTAATTTAGAGCACGGAGTCACCTAGTGCAG,6190 fluorescence intensity (a.u.)
13,TATGATTGATATCCACGAATTGAAGAAGAAGTTGCATTGCCGGAGTCACCTAGTGCAG,55300 fluorescence intensity (a.u.)
14,GACGGATTAATTATGCTGAATAAATTCGTCAAGCAGTTTCCGGAGTCACCTAGTGCAG,16200 fluorescence intensity (a.u.)
15,ATTTAAATTTCCATCCTTAAATTTGAAGGTGATTTTGAGGCGGAGTCACCTAGTGCAG,21500 fluorescence intensity (a.u.)
16,TAGTTATTTTAATTTATCATTAAAATGTTGTAGTCATGAACGGAGTCACCTAGTGCAG,4460 fluorescence intensity (a.u.)
17,GATTTAATTACAACGAATACAACAGTGTGATCGGATTGTACGGAGTCACCTAGTGCAG,13200 fluorescence intensity (a.u.)
18,ATCTAAATTTCATCTGCTCTTGTTTATGCATGTAACCAAGCGGAGTCACCTAGTGCAG,3510 fluorescence intensity (a.u.)
19,CCTGATGGGCCTAAACTCGAAAATTAATGGGCCTAACTTGCGGAGTCACCTAGTGCAG,22300 fluorescence intensity (a.u.)
20,AATTAAATGGTGAAGGGTTATGATTGGGAAGAGAATGCCGCGGAGTCACCTAGTGCAG,11300 fluorescence intensity (a.u.)
21,GGACAGATGTAATTTAATATTATATACAGACATAAATGTACGGAGTCACCTAGTGCAG,4960 fluorescence intensity (a.u.)
